The whole screen tested about 150,000 compounds, of which about 540 (0.36%) showed an effect of 50% or more. The list shows a part of the results.
Test system: Plasmodium falciparum
Assay: Primary screen in NF54 nanoGlo assay, in single point, at 2uM, 72h; a lower Z score goes with more inhibition
Type: functional, Erythrocyte
Conditions: timepoint 72 hour

SMILES	% Inhibition	Z score
COC(=O)c1ncn2c1C(=O)N(Cc1ccc(C)cc1)[C@](C)(C(=O)NCc1ccccc1OC)C2	-7%	0.91
CC(=O)Nc1ccc(C(=O)N2C[C@@H](C)N(C)[C@@H](C)C2)nc1	-3%	0.41
C[C@H](NC(=O)c1cnc(Cc2c(Cl)cccc2Cl)nc1O)C(N)=O	-15%	1.78
CC[C@](C)(NC(=O)c1ccccc1)c1noc(-c2cc(C(C)C)[nH]n2)n1	-1%	0.09
O=C(C1COc2ccccc2O1)N1CCOC(c2ncon2)C1 (stereo not drawn)	-6%	0.81
Cc1ccc(C(=O)Nc2cccnc2N(C)C)cn1	-2%	0.26
O=C(NCC1CCC1)c1cccnc1O	0%	-0.05
CN1CC(C(=O)NC[C@@H]2C[C@H]2c2ccccc2)CC1=O (stereo partly drawn)	-9%	1.09
Cc1nn(-c2ccc(C(=O)N3CCC(Cc4ccccc4)CC3)cc2)c2c1C(=O)CC(C)(C)C2	-11%	0.97
CC(C)Oc1ccc(C(=O)N2C3CCC2CC(n2cccn2)C3)cc1 (stereo not drawn)	-8%	1.01
CCn1ccc(CNC(=O)N[C@H](C)c2ccc(Cl)cc2)n1	0%	-0.01
COc1ccc(-n2ncc(Oc3cccc(C)c3)c(Nc3cccc(C(=O)NCc4ccc(F)cc4)c3)c2=O)cc1	41%	-3.27
CCCN(C)C(=O)C1C2C(=O)N(Cc3cccc(OC)c3)C[C@@]23C=C[C@@H]1O3 (stereo partly drawn)	4%	-0.57
CC(CNC(=O)N1CCCC1c1ccncc1)c1nccs1 (stereo not drawn)	-7%	0.99
CN(Cc1nccs1)S(=O)(=O)Cc1ccc(Cl)cc1F	-2%	0.4
CN(Cc1ccccc1Cn1cccn1)[C@H]1COC[C@@H]1O	-10%	0.92
Cc1cccc(CN2CCC[C@@]3(CCN(C(=O)c4cc(C)oc4C)C3)C2)c1	-10%	0.93
COc1ccc(S(=O)(=O)N(Cc2cc(C3CC3)no2)c2nccs2)cc1	-10%	1.88
COc1nc(CNC(=O)Nc2ccccc2)nc(N2CCOCC2)n1	7%	-0.85
CC(C)C[C@H](NC(=O)Nc1cccc(-c2nnn(C)n2)c1)C(N)=O	10%	-1.23
CCc1nn(C)c(OC)c1CNc1nnc(C(C)(C)C)o1	-9%	1.15
CC(C)C[C@@]1(C)CC(=O)N(CCC#N)C1=O	-3%	0.44
O=C(O)[C@H]1CCCN1Cc1coc(-c2ccc(F)cc2)n1	-1%	0.19
Cc1cccc(Nc2nc(C(=O)N3CCCC[C@@H]3C)nc3ccccc23)c1	11%	-2.13
Cc1cc(N2CCN(Cc3ccccc3)CC2)c2nncn2n1	4%	-0.75
COc1ncccc1N(C)C(=O)c1cc(C)n(-c2cccc(F)c2)n1	0%	-0.01
Cc1cc(Cn2nnc(C(=O)NS(=O)(=O)CC3CC3)c2C)on1	5%	-0.88

SMILES	% Inhibition	Z score
O=S(=O)(NCc1cccc(-c2nccs2)c1)c1cccs1	-3%	0.41
FCC[C@H]1CCCN(c2nnc(-c3ccon3)s2)C1	2%	-0.3
COc1ccc(C(=O)N2CCCCCNC(=O)[C@@H]3CCCC[C@@H]32)cc1	2%	-0.31
CC(C)c1c2cc3c(cc2nn1-c1ccccc1)OCCO3	38%	-5.43
COc1ccc(C(=O)NCCNS(=O)(=O)c2ccc(Cl)c3nonc23)cc1OC	-5%	0.71
COc1ncccc1CNC(=O)c1ccc2c(c1)OCCO2	1%	-0.14
COC(=O)c1cc(S(=O)(=O)N2CCC[C@H]2C(=O)Nc2ccc(C)c(C)c2)cn1C	-11%	2.05
C=CCn1cc(CN(C)[C@@H](C)c2ccon2)c(C)n1	-2%	0.32
CC(C)n1cnnc1CC1CN(C(=O)Nc2ccccc2F)C1	6%	-0.96
O=C(OC[C@H]1CCCCN1)N1CCCCC1	6%	-0.66
O=C(NCc1ccc(N2CCCC2=O)cc1)[C@@H]1CCCO1	6%	-0.83
Cn1ccnc1C(O)C1CCCN(Cc2cc3cc(F)ccc3o2)C1 (stereo not drawn)	-9%	1.64
N#Cc1ccc(N2CCC(CN3CCCCC3=O)CC2)cn1	-2%	0.3
C[C@@H](CNC(=O)CN(C)S(C)(=O)=O)c1ccsc1	-4%	0.44
O=C1c2cnn(-c3ccccc3)c2CN1CC(=O)N1CC[C@H]1C1CC1	-2%	0.34
Cc1noc(C)c1N(C)C(=O)C[C@@](C)(C(=O)O)c1ccc(Cl)cc1	-2%	0.31
Nc1ncc(-c2cccc(CO[C@H]3CCOC3)c2)c(C(F)(F)F)n1	-5%	0.84
Cc1ccnc(Cn2nc(C(F)F)cc2C(F)F)n1	-2%	0.31
CCCn1nnc2cc(S(=O)(=O)N3CCC[C@H](C(=O)NCc4cccc(OC)c4)C3)ccc21	-24%	2.1
Cc1nnc(NCc2cc(-c3ccccc3)n[nH]2)o1	-16%	1.37
CC(C)C[C@H](NC(=O)C1=CCCCCC1)c1nc(-c2nnc[nH]2)no1	-2%	0.22
CC(C)(C#N)C(=O)NCCNc1ccccc1	-9%	1.17
CCN(CC)c1ccc(NC(=O)N2CC[S+]([O-])CC2)cn1	1%	-0.14
C[C@H](O)CN(CC(F)F)C(=O)c1cc(O)ncc1Br	-10%	1.02
CN(C[C@H]1CCc2ccccc21)C(=O)C(C)(C)C(=O)O	-2%	0.28
O=C(NCC1CCCO1)C1COC2(CCN(C(=O)c3ccc(F)cc3F)CC2)N1C(=O)c1ccc(F)cc1 (stereo not drawn)	-6%	1.23
CCn1ncc(CNC(=O)Nc2nc(C)c(Cc3cccc(Cl)c3)s2)n1	-4%	0.46

Source: ChEMBL document CHEMBL4888484, “Replenishing the malaria drug discovery pipeline: Screening and hit evaluation of the MMV Hit Generation Library 1 (HGL1) against asexual blood stage Plasmodium falciparum ,using a nano luciferase reporter read-out” (2022)
